Each structure is given as a SMILES string. Among all 310,000 compounds or so, about 2,200 (0.71%) showed an effect of 50% or more. The effect is printed as a negative number. This is one part of the list.

The target in the assay is human ether-à-go-go-related gene (hERG) potassium channel (human, UniProt Q12809). Description: primary screen, population patch clamp on CHO cells stably expressing hERG.
human ether-à-go-go-related gene (hERG) potassium channel, sequence (Q12809 whole entry, looked up): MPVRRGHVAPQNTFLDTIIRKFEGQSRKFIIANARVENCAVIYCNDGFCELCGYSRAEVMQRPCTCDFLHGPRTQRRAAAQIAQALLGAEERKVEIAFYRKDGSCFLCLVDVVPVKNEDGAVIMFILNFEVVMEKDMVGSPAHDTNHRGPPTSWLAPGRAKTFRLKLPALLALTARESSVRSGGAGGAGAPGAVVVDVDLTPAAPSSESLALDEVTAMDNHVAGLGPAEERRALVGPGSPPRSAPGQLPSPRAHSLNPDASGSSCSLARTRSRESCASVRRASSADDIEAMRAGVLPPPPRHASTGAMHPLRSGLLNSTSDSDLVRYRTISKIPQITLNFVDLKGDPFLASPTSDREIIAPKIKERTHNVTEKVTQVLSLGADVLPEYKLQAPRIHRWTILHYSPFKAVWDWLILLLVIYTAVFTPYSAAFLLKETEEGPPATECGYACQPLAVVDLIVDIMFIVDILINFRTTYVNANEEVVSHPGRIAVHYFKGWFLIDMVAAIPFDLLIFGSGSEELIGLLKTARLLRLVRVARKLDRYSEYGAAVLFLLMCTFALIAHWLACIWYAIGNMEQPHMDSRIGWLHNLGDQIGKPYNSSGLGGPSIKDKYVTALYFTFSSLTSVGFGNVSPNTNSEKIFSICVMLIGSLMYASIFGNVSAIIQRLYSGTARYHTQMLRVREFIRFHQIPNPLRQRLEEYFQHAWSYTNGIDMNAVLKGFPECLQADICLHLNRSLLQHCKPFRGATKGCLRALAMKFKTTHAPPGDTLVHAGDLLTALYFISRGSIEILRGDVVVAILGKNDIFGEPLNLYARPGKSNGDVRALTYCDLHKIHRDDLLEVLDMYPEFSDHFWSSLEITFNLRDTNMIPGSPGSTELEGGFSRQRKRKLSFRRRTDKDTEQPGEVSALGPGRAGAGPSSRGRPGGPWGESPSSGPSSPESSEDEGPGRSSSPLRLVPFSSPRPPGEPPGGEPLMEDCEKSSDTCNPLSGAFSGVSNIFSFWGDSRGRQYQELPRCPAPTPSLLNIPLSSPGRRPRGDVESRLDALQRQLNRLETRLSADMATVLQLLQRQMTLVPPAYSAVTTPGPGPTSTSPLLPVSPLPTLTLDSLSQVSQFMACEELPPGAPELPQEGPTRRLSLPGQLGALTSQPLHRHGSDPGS
As to `COC(=O)c1cc(C)sc1NC(=O)CCCC(=O)O`, the “hERG current change (%, negative = inhibition) at 1uM” value came to 23.2%.
Turning to `N#Cc1c(NC(=O)CSc2ncccn2)oc(-c2ccccc2)c1-c1ccccc1`, the “hERG current change (%, negative = inhibition) at 1uM” value was 23.3%.
The value for `Cc1cccc(C2Nc3ccccc3C(=O)N2c2ccccc2)n1` (centres unmarked) was 7.56%; that for `NC(=O)CN1CCN(CCN2C(=O)c3cccc4cccc(c34)C2=O)CC1` was 9.48%.
On to `COC(=O)c1scc(C)c1N1C(=O)c2ccccc2C1=O`, for which the “hERG current change (%, negative = inhibition) at 1uM” value was determined as 12.4%.
Turning to `COCC(=O)Nc1cc(C)cn(Cc2c(F)cccc2Cl)c1=O`, the “hERG current change (%, negative = inhibition) at 1uM” value turned out to be 13.8%.
As for `CCOc1cc(C(=O)NCCc2ccc(S(N)(=O)=O)cc2)cc(OCC)c1OCC`, the figure is 3.65%; as for `CCc1ccc(C2CC(c3ccc(Cl)cc3)n3nc(N)nc3N2)cc1` (centres unmarked), 5.32%.
The value for `COC(=O)c1cc2ccsc2n1Cc1nc(-c2cccc(Cl)c2)oc1C` was 7.84%.
As for `C=CCn1c(C)cc(C(=O)COC(=O)[C@@H](NC(=O)c2ccccc2Cl)C(C)C)c1C`, the figure is 4.14%; as for `CCCc1ccc2oc(C(=O)N3CCC[C@H]3CO)c(C)c2c1`, 3.59%.
On to `Cc1ccccc1S(=O)(=O)N1[C@@H](c2ccc(F)cc2)C(C(=O)O)=CC[C@H]1c1ccc(Cl)cc1`, for which the “hERG current change (%, negative = inhibition) at 1uM” value is 8.27%.
The value for `CCOC(=O)C1(Cc2cccc(F)c2)CCN(C2CCOCC2)CC1` was -40.1%; that for `COc1ccc(/C=C/C2=NN(C)C(=O)CC2)cc1` was 16.1%.
For the compound `N#Cc1cccc(S(=O)(=O)NCC(=O)OCC(=O)NCc2ccccc2)c1`, the “hERG current change (%, negative = inhibition) at 1uM” value is reported as 9.66%.
As for `CC1CCc2sc(C(=O)OC(C)C(=O)Nc3ncc(Cl)cc3Cl)cc2C1` (centres unmarked), the figure is 11.1%; as for `CCC1CN(C(=O)NCc2ccc(F)cc2)c2ccccc2O1` (centres unmarked), 7.74%; as for `CC1CCCC(C)N1C(=O)CSc1nnnn1-c1cccc2c1CCCC2` (centres unmarked), -7.29%.
As for `O=C(CBr)c1ccc([N+](=O)[O-])c(CS(=O)(=O)c2ccc(Cl)cc2)c1`, the figure is 16.1%; as for `CN(C)/C=N/S(=O)(=O)c1cccn1-c1ncc(C(F)(F)F)cc1Cl`, 10.5%; as for `CC/C(=N\NS(=O)(=O)c1ccc(C)cc1)c1ccco1`, 11.6%.
The value for `O=c1[nH]c(CN2CCN(c3ccccc3O)CC2)nc2scc(-c3ccccc3Cl)c12` was 13%; that for `Cc1ccc(SCC(=O)OCC(=O)NC(C)c2ccc(F)cc2)cc1` (centres unmarked) was 8.33%; that for `O=C(NC1CCCC1)C(c1ccc(Cl)cc1)N1CCN(C2CCCCC2)CC1` (centres unmarked) was -27.2%.
As to `OC(c1nc2ccccc2[nH]1)C(O)c1nc2ccccc2[nH]1` (centres unmarked), the “hERG current change (%, negative = inhibition) at 1uM” value was 14.3%.
As for `Cc1ccc(-n2nc3c(=O)n(CC(=O)NCc4ccccc4)nc(C)c3c2C)cc1`, the figure is 12.6%; as for `CN1C(=O)NC(NS(=O)(=O)c2ccc(N)cc2)(C(F)(F)F)C1=O` (centres unmarked), 8.38%; as for `CC(=O)N1CCC2(CC1)CC(=O)c1cc(OCC(=O)N3CCC4(CC3)OCCO4)ccc1O2`, 5.56%.
Take `COc1ccc(C2/C(=C(/O)c3ccccc3)C(=O)C(=O)N2c2ccccn2)cc1OC` (centres unmarked): the “hERG current change (%, negative = inhibition) at 1uM” value turned out to be 12.8%.
As for `O=C(c1cn(Cc2ccccc2F)c2ncccc12)C(F)(F)F`, the figure is 12.7%; as for `Cc1ccc(C)c(S(=O)(=O)Nc2ccc3oc(C)c(C(=O)O)c3c2)c1`, 12.8%; as for `O=C(NCCc1cn2ccsc2n1)C1CCCCC1`, 1.07%.
The value for `CCCSC1=NN2CCCC(=O)N=C2S1` was 8.55%.
Regarding `CN1CCN(C(=O)C2CCN(S(=O)(=O)c3ccccc3[N+](=O)[O-])CC2)CC1`, the “hERG current change (%, negative = inhibition) at 1uM” value amounted to 11.2%.
For the compound `Cc1ccccc1Oc1nc2ccccn2c(=O)c1/C=C(\C#N)C(=O)Nc1c(C)n(C)n(-c2ccccc2)c1=O`, the “hERG current change (%, negative = inhibition) at 1uM” value is 5.41%.
With `Cc1ccc(NC(=O)CN(C)C(=O)c2cccnc2Nc2cccc(C(F)(F)F)c2)cc1`, the “hERG current change (%, negative = inhibition) at 1uM” value worked out at 8.3%.
As for `O=C(O)C1Nc2c(Cl)cc(Cl)cc2C2C=CCC12` (centres unmarked), the figure is 17.5%.
Consider `CCCCCCc1cc2cc(C(=O)Nc3ccccc3)c(=O)oc2cc1O`, for which the “hERG current change (%, negative = inhibition) at 1uM” value came to 9.04%.
In the case of `COc1ccc(/C=N/NC(=O)Nc2cccc3nsnc23)cc1`, the “hERG current change (%, negative = inhibition) at 1uM” value came to 6.97%.
As to `O=C(O)CCn1c(=O)[nH]c(=O)n(CCC(=O)O)c1=O`, the “hERG current change (%, negative = inhibition) at 1uM” value is listed as 15.3%.
As for `CCc1cc2cc3c(cc2nc1SCC(=O)Nc1c[nH]c(=O)[nH]c1=O)OCO3`, the figure is 2.67%.
Take `C/C(=C/c1ccccc1)C(=O)N1CCC(C)CC1`: the “hERG current change (%, negative = inhibition) at 1uM” value was found to be 10.5%.
Regarding `COc1ccc(/C=N/N=C2/NC(=O)C(c3ccccc3)S2)c(OC)c1` (centres unmarked), the “hERG current change (%, negative = inhibition) at 1uM” value stood at 18.7%.
As for `COc1cccc(CNC(=O)CC2C(=O)NCCN2Cc2ccoc2)c1OC` (centres unmarked), the figure is 8.51%.
As for `COc1ccc(CN2CCN(Cc3ccccc3F)CC2)c(OC)c1.O=C(O)C(=O)O`, the “hERG current change (%, negative = inhibition) at 1uM” value is recorded as -36%.
For `COc1cccc(N2CCN(C(=O)c3ccc(CS(=O)Cc4ccc(Cl)cc4)o3)CC2)c1` (centres unmarked), the “hERG current change (%, negative = inhibition) at 1uM” value is listed as -10.9%.
With `COc1ccc(C(=O)Nc2nnc(Cc3ccc(OC)c(OC)c3)s2)cc1`, the “hERG current change (%, negative = inhibition) at 1uM” value stood at 14%.
As for `COc1cccc(-c2nc(NCC3CCCO3)c3ccccc3n2)c1O` (centres unmarked), the figure is -3.62%; as for `CN1C(=S)SC(C)(C)C1NO` (centres unmarked), 2.78%; as for `Cc1ccccc1Oc1nc2c(c(=O)n(C)c(=O)n2C)n1C`, 7.72%.
The value for `CC(C)CN1CCN(CCCc2ccccc2)C(CCO)C1` (centres unmarked) was 5.95%; that for `CCN1CCN(C(=S)NCCc2ccccc2)CC1.O=C(O)C(=O)O` was 2.76%; that for `O=C(c1cc2ccccc2o1)N1CC=C(c2ccccc2)CC1` was 12.8%.
As for `COc1cc(C2c3sc(=O)[nH]c3SC3C(=O)N(c4ccc(C)cc4)C(=O)C32)ccc1O` (centres unmarked), the figure is 7.83%.
As to `COc1ccc(Cc2nnc(NC(=O)Nc3ccccc3)s2)cc1OC`, the “hERG current change (%, negative = inhibition) at 1uM” value was determined as 16.7%.
For `S=c1[nH]nc(-c2ccncc2)n1/N=C/c1cccc2ccccc12`, the “hERG current change (%, negative = inhibition) at 1uM” value is 7.22%.
